Reference: the supplement of paper PMC11417369
The list shows a part of the results.

tested on: PfAP2-HC AP2 domain (GST-tagged); test: gcPBM binding intensity (ln(normalized median fluorescence intensity)); higher = stronger DNA binding
Procedure, shortened: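 The binding buffer was 1× PBS containing 1% milk, 0.2 mg/ml BSA, 0.5% salmon testes DNA and 0.03% Triton X-100. In it, GST-tagged P. falciparum DNA-binding domains expressed in E. coli were applied for 1 h to an Agilent 4 × 180k array of primer-extended double-stranded 36-bp intergenic genomic probes plus negative controls. Binding intensity, read with Alexa488 anti-GST antibody and a 488 nm scan, is the highest Masliner-normalised natural-log median intensity across replicate spots of either probe orientation.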

| Sequence | gcPBM binding intensity (ln) |
| --- | --- |
| ATTTCCTTTTGTTTCAGTACATAATTTTTTTTTTTT [XGTACX_site4842] | 10 |
| GATATTCATAGAAACACACATACAAATTATGTATAT [CACACA_site144] | 9.77 |
| TAATTGTACGCCAATACACACAGAATTAAAATGTAG [CACACA_site4234] | 9.83 |
| TTTTTAAAGTTTTATACACACACCAAAATTATTCTA [CACACA_site600] | 9.84 |
| GAAAAAATTTTATGGTGTACTTTATTTATTTATATA [XGTACX_site6323] | 9.7 |
| ATGTTGTGTATATATACACACATACATATATATATA [CACACA_site8461] | 9.92 |
| GAAATATTTAGACACACACACAAACATATAAATATA [CACACA_site6980] | 11.1 |
| GATTATATTATATATTAAATATAAATATGTATTATA [TGCATGCA_negctrl_site66] | 9.46 |
| AATGGAAATGTAAAATGTACAGGACGCACACACATA [XGTACX_site7788] | 10.4 |
| AATGAGAAGGACTGCACACTAAAATGGAAGGAGAAA [CACACA_site1575] | 9.94 |
| AAAAAAAATTAAAATAAATTAAAAAGTAATTATATA [GTGCAC_negctrl_site615] | 9.48 |
| ATTAAGTTCAAATGTAGTACGTGTAAAAAAAAAAAA [XGTACX_site1578] | 9.78 |
| TACCATGTTCAAATTACACACATATAATGTAATATA [CACACA_site5150] | 9.68 |
| ATATATAATATTTTTATTTTTATTTTTTTTTTATGA [TGCATGCA_negctrl_site577] | 9.41 |
| TTTATATATGTAAATGCACACATATGTGTATATACT [CACACA_site8493] | 10 |
| AAAATAAATAAATAAATAAATATATATATATATATA [XGTACX_negctrl_site345] | 9.54 |
| TATAGGTATATATTATGTACTTATAATTATATAGAT [XGTACX_site1912] | 9.51 |
| TTATTACATGTTACTTAACACACATCTGGTGAAATA [CACACA_site7939] | 9.7 |
| GGAAAGACAGTTCACAGTACCCAGTAAACTCTACGG [XGTACX_site2557] | 9.61 |
| AAAATATAGTAATATATATATGTATATTATTTGTGG [CACACA_negctrl_site1590] | 9.77 |
| TGTCTTTAAATTTCTCAACACACAGTTATAAAAAAT [CACACA_site8930] | 9.46 |
| GGGTCAAGTAAGCTGTTCCTCTTTTTCTTTCTCACT [GTGCAC_negctrl_site473] | 10 |
| TATAAATTTAAAATGACACACACTAATATTATTTAA [CACACA_site8334] | 10.1 |

| Sequence | gcPBM binding intensity (ln) |
| --- | --- |
| ATACGATTGAAACATTGTACATGAATATAAAAAAAT [XGTACX_site5704] | 9.72 |
| TTGTATATATATGGAAAAATATATATATATATATAT [GTGCAC_negctrl_site591] | 9.36 |
| TTTATTTATAGACACACACACAAAAAAAAAAAAAAA [CACACA_site7280] | 10.3 |
| CATTTATATTATAAATGTACAAAGTTCGTTTGTTCC [XGTACX_site1305] | 9.53 |
| TTTTTTTTTTTTTTTATAAAAGATAATTTTTTTTTA [CACACA_negctrl_site133] | 8.99 |
| TCAAAGCACACATACACACACATATAGATTTATATA [CACACA_site6272] | 10.2 |
| TAAATAAATATATATTCACACACAAACATATATATA [CACACA_site9332] | 10.5 |
| TCTTCATAAAAATAAAGTACATTATATATATAAATA [XGTACX_site3775] | 9.37 |
| TAAACGTTAGTATGTGTGCACATTAGTAATTTAAAA | 10.1 |
| TTTTTATTATTCTTAAGGATATAACAAAAAAGAAAA [XGTACX_negctrl_site584] | 9.36 |
| ATTAATATTATTAGAAGTACTAATAGTAGTATAACT [XGTACX_site1325] | 9.61 |
| TTCTAAAAAAATAAAATTATCAAGGTTTTTAAACGT [CACACA_negctrl_site308] | 9.45 |
| GCATCCCTTTTTATGTGTACATACAAAGGCAATTAC [XGTACX_site6977] | 9.82 |
| AAAATATAAATCTAAGCATGCAAAAAAAATTTATAA [TGCATGCA_site1008] | 9.72 |
| TATTGTTTTAAAGAGACATGCAATATATATTATTCC [TGCATGCA_site752] | 9.53 |
| TAATATTATAGATAAACACACATACACATGTAAATA [CACACA_site7049] | 9.93 |
| AAATGAAATTTGTATACACACAAATATATATATATA [CACACA_site836] | 9.99 |
| TTTTTATTCGATGATCAAATAGGTATATACAAAAAA [CACACA_negctrl_site1813] | 9.44 |
| AATAATAATAGTAATATGTACATATATATATATATA [TGCATGCA_negctrl_site542] | 9.72 |
| TATAAGCAAAAACACACACACATATATATATATATA [CACACA_site3804] | 10.2 |
| TTATTTAAAAAAAAGTGTACCCATATATTATAAATC [XGTACX_site8374] | 9.52 |
| AATTTATATTTTCGTAGTACGTATTTTATTCTTTTG [XGTACX_site4162] | 9.79 |
| TATAAGGTGTCCTATACACACTCCAATAGATATATA [CACACA_site7066] | 9.62 |

| Sequence | gcPBM binding intensity (ln) |
| --- | --- |
| CTGAACCCGTTATGGTGTACATAAAATAAGACACAG [XGTACX_site3484] | 9.6 |
| ATTACATGCAATATATGTACGTAATATATATATATA [XGTACX_site2300] | 9.61 |
| TGCATGCATTATCATAGTACATATAATGTTGTATAA [XGTACX_site2775] | 9.5 |
| TAATCTTTCGTACATGTACACACAGAAAAAAAAAAA [CACACA_site8798] | 9.66 |
| ATTATTAAGTTTCACAAGAACATTGTTAACAATTTT [CACACA_negctrl_site1128] | 9.59 |
| TATTAAGTATTTTACGTACACACTTATAAATGTACA [CACACA_site3885] | 9.56 |
| AATAATCATGATCAAAGTACTTATGAATACCAAAAA [XGTACX_site2572] | 9.84 |
| AAAAAAAAAAAGTACACACATACATATAAATATATA [CACACA_site1809] | 9.86 |
| AAAGACGCAAAATTGGTGCGCTGCTTTTAGCATTTT | 9.58 |
| ACAGAATATTTAATTCAACACACATACATATTTATT [CACACA_site8734] | 9.96 |
| ATTTATATCCTTAAACGTACATTGTATTGTATTTTA [XGTACX_site6080] | 9.76 |
| AAAATTATTTTTATGTGTACTTATTTATTATTTATA [XGTACX_site6665] | 9.81 |
| TGATAACCTAATAATACACACACATGAATATATATA [CACACA_site8226] | 10 |
| GTCGCCAAAAGGTGTACACATAATGCATTATCATAA [CACACA_site6112] | 9.78 |
| TAAAAAAAATAGCATACACACATATATACATATATA [CACACA_site658] | 10 |
| ATTAAAAAATTATTCACACAAAATAAAAAAATGAAA [CACACA_site4918] | 9.65 |
| TACACATAATATAATGCATGTGTGATGTATGTTTAA [TGCATGCA_site697] | 9.76 |
| ATATTTAGGATTATCTGTACATAATATGTTTAATTA [XGTACX_site3426] | 9.6 |
| AAATATTTGGAGAAATGTACATATTATAAATATATT [XGTACX_site6885] | 9.78 |
| CTAGGAAATTATATGGGTACTCATATTCATAAAAAA [XGTACX_site1846] | 9.41 |
| AAAAAAAACGCACATACACACACACCCATATATATA [CACACA_site9118] | 10.4 |
| AAAAAAAAAAAAAAGGTGCAAATAAATTAACCTTAT | 9.57 |
| TTTTATTTTTTCCGACGTACATCCATTATATATAAT [XGTACX_site4469] | 9.78 |

| Sequence | gcPBM binding intensity (ln) |
| --- | --- |
| AAATGTTAAAATGACAGTACATATATAAAAAAAAAA [XGTACX_site3936] | 9.77 |
| AAGAACAGAACGTACACACACATATATATATATATA [CACACA_site3457] | 10.3 |
| AAAAAAAGAATGTGAACACACACATTGAATATAATT [CACACA_site8341] | 10 |
| AATTATTTACCCTATACACACAAAACCCACTAAAAA [CACACA_site4801] | 10.2 |
| TATAAATAAATACATACACACACATACATATATATA [CACACA_site9024] | 10.4 |
| AATCATATGAAAAATACATGCGCATGGATACCTTTA [TGCATGCA_site224] | 9.86 |
| TACTTATGTGCATACCTACACACTTACATATATATA [CACACA_site2975] | 10.1 |
| GATGATGTTTATTTGTGTACATATTAATACTTAATA [XGTACX_site1902] | 9.86 |
| TTTTCTTTTTTTTATTGTACTTATAAAAATAAATAA [XGTACX_site3498] | 9.42 |
| ATAGGACATGTATCCAGTACATATTTAAAAAAAATA [XGTACX_site88] | 9.6 |
| GCATATATCAAATATCGTACATTTTTTAAATTAAAA [XGTACX_site3994] | 9.33 |
| ATAAAATCAAAATATACACACAAGGGGGAAAATCAA [CACACA_site2809] | 10 |
| TTTGTAAGTCTTTGTTGTACTCAATAGAATGAAGAA [XGTACX_site8930] | 9.45 |
| ATGAAAAAAAGACATGCATGTAAATATAAATTGCTT [TGCATGCA_site504] | 10.2 |
| CTCATTTTGTTAATGGTGCAAAAAAAAAAAAAAAAA | 8.92 |
| CATTATAAGAGACACACACACATATATAAATATGTA [CACACA_site6621] | 10.9 |
| AGTAAGAGGCATTAAGCATGCATATTATTATAAGCA [TGCATGCA_site237] | 9.85 |
| TATTTAAAACTATACACATGCATTATATAAAGATAT [TGCATGCA_site702] | 9.55 |
| TTTCATTTTTGAAGGTGTACTTAAAATTTATGTAAT [XGTACX_site6671] | 9.31 |
| AAAATTTATTATCTATATAATAATATGAAACAAAAC [GTGCAC_negctrl_site731] | 9.59 |
